Where “and” joins values, the source holds several entries; their conditions need not be identical. Equal entries are not always repeated. The campaign covered roughly 350,000 compounds. About 31,000 (8.9%) were called active. Inconclusive results, whose numbers are uncertain, are shown with a selection of clear calls. Calls follow the shape of the dose curve; as a rule, active = well fitted inhibition curve with a large enough effect; inconclusive = small, poorly fitted or top-dose-only effect; inactive = no such curve, though single readings can be large or run the other way. Potencies beside an inconclusive call are fits to weak or partial responses and may not hold up.
biological target: Histone-lysine N-methyltransferase EHMT2 (Homo sapiens) (UniProt Q96KQ7); assay: qHTS Assay for Inhibitors of Histone Lysine Methyltransferase G9a; conditions: G9a H3K9 monomethylation, AlphaScreen, 2 h; activity, negative = inhibition: at 59 µM (top of the series) unless noted; also: nearly all actives have a fitted effect of over 75% in size
Summary of the method: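 Methyltransferase reactions run at room temperature for 2 h (20 nM enzyme, 500 nM biotin-H3K9 peptide, 20 uM SAM) after a 15 min compound preincubation; product detected by AlphaScreen beads and anti-H3K9me1 antibody.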
% is scaled to controls: 0 for no effect and ±100 for the full control effect; potency is read from the fitted curve at half-maximal effect; tags tell the direction and shape of the fitted curve.

Chain of UniProt Q96KQ7 (Q96KQ7 whole entry, looked up): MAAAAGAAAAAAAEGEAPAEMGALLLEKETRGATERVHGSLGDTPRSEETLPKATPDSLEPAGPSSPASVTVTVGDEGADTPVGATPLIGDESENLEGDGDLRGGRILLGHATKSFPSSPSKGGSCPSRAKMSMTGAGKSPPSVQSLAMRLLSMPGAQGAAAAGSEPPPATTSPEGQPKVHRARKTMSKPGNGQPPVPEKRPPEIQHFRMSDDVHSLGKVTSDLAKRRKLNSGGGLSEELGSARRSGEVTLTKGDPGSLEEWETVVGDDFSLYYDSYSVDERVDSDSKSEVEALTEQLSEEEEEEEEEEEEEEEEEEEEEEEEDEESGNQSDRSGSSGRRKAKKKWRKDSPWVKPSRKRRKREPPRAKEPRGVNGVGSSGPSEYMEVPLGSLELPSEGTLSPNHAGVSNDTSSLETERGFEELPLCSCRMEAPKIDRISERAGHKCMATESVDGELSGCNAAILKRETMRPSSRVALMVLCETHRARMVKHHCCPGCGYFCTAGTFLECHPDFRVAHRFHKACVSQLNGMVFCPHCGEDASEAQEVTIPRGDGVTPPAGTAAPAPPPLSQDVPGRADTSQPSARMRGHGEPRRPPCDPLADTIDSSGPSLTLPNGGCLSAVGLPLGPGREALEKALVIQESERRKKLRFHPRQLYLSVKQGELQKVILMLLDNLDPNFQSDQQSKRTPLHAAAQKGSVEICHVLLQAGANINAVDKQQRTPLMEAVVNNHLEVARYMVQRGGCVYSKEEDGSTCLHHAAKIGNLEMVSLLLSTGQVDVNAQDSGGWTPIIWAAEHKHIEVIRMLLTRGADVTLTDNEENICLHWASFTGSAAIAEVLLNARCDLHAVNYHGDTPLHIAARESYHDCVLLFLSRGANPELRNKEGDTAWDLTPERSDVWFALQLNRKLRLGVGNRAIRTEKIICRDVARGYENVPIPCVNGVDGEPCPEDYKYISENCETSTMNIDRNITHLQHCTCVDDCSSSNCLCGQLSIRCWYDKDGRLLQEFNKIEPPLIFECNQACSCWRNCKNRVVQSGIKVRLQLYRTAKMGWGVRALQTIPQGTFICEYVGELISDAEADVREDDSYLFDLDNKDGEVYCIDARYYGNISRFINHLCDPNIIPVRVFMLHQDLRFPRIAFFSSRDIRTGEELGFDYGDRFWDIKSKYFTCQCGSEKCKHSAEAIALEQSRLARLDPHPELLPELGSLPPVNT

Compound	activity, negative = inhibition	Potency
COc1cccc(CNS(=O)(=O)c2cc(CN3C(=O)c4cccnc4C3=O)ccc2OC)c1	inactive: 15.9% [at 102 µM]	–
O=C(NNC(=S)Nc1ccccc1)c1cccnc1	–	active: 56.2 µM
CCc1ccc(CN2CCC(C(=O)Nc3ccc(-n4nc(C)cc4C)cc3)CC2)o1	–	inconclusive: 79.4 µM [inhibitor, single point]
Cc1ccc(C2=Nc3ccccc3N=C(C(Cl)Cl)C2)cc1	–	inconclusive: 31.6 µM [inhibitor, single point]
CCCCNC(=O)CN(c1cc(C(F)(F)F)ccc1Cl)S(C)(=O)=O	inactive: 5.48%	–
C=CCn1c(C)cc(C(=O)CN2C(=O)NC3(CCCc4ccccc43)C2=O)c1C (stereo unspecified)	–	active: 44.7 µM
COCc1cc(C)nc(N/N=C/c2ccc(-c3ccc(C(=O)O)c(Cl)c3)o2)c1C#N	–	active: 11.2 µM
O=c1[nH]c(CN2CCN(Cc3ccc4c(c3)OCO4)CC2)nc2sc3c(c12)CCC3	–	inconclusive: 0.1 µM [inhibitor, full curve, poor fit]
CCc1cccc(C)c1NC(=O)CN1CCCN(Cc2ccccc2Cl)S1(=O)=O	inactive: -2.54%	–
CCOC(=O)C(CC)n1cnc2c(nnn2-c2ccc(F)cc2)c1=O (stereo unspecified)	inactive: 6.6% [at 102 µM]	–
COc1ccc(CCNC(=O)COC(=O)c2cnccn2)cc1	–	inconclusive: 89.1 µM [inhibitor, single point]
CCOC(=O)c1c(C)[nH]c(C(=O)NCc2ccccn2)c1C	inactive: -28.2% [at 102 µM]	–
O=C(O)C(CCCCN1C(=O)c2ccccc2C1=O)N1C(=O)c2ccccc2C1=O (stereo unspecified)	–	inconclusive: 56.2 µM [inhibitor, partial curve, poor fit]
CCCOc1ccc(OCCN2CCCC(C)C2)cc1 (stereo unspecified)	–	active: 14.1 µM
Cc1ccc2cccc(OC(=O)c3ccc4c(c3)OCCO4)c2n1	–	active: 8.91 µM
O=C(Cn1ncc2ccsc2c1=O)N1CCN(c2ccccc2F)CC1	inactive: -3.46%	–
CN1Cc2cccc3c2C(Cc2ccccc2S3)C1 (stereo unspecified)	–	inconclusive: 35.5 µM [inhibitor, single point]
COc1ccc(N(C(=O)/C=C\C(=O)Nc2ccc(C)cc2)C(C(=O)NCc2ccco2)c2ccc(C)cc2)cc1 (stereo unspecified)	–	active: 14.1 µM
Cc1cc(NC(=O)c2cc([N+](=O)[O-])ccc2Cl)no1	inactive: 2.71% [at 102 µM]	–
CC1(c2cccc(Br)c2)NC(=O)N(CC(=O)Nc2ccc(S(N)(=O)=O)cc2)C1=O (stereo unspecified)	inactive: -2.88% [at 102 µM]	–
CC(NC(=O)Cc1ccccc1[N+](=O)[O-])c1ccccc1 (stereo unspecified)	inactive: 6.27% [at 102 µM]	–
c1ccc(Nc2nc(-c3cccs3)cs2)nc1	–	inconclusive: 31.6 µM [inhibitor, single point]
CC(=O)Nc1ccc(N2CCCC2)cc1	–	inconclusive: 0.282 µM [inhibitor, partial curve, poor fit]
N#C/C(=C(/O)CCl)c1nc2ccccc2[nH]1	inactive: -6.7% [at 102 µM]	–

Compound	activity, negative = inhibition	Potency
COC(=O)c1sccc1NS(=O)(=O)c1ccccc1	inactive: 76.8% [at 102 µM]	–
COCCn1c(C23CC4CC(CC(C4)C2)C3)n[nH]c1=S	–	inconclusive: 2.82 µM [inhibitor, partial curve, poor fit]
C=CCN(CC=C)c1cnn(-c2nc3ccccc3[nH]2)c(=O)c1Cl	–	inconclusive: 0.631 µM [inhibitor, full curve, poor fit]
COc1ccc2c(c1)-c1c(ssc1=S)C(C)(C)N2C(=O)CSC1=NCCS1	–	active: 5.62 µM
COC(=O)c1ccc(C)c(-n2c(C)cc(C=O)c2C)c1	inactive: -43.3%	–
COCCN1C(=O)c2oc3ccccc3c(=O)c2C1c1cccc(O)c1 (stereo unspecified)	–	inconclusive: 89.1 µM [inhibitor, single point]
Cc1nc2ccccn2c1C(=O)NC1CCCCC1	–	inconclusive: 89.1 µM [inhibitor, single point]
CC1CCCC(C)N1C(=O)COC(=O)c1cc(S(=O)(=O)N2CCOCC2)ccc1Cl (stereo unspecified)	–	inconclusive: 79.4 µM [inhibitor, single point]
CC[C@@H](C)[C@@H](CO[C@@H](Cc1ccccc1)C(=O)N[C@@H](CCS(C)(=O)=O)C(=O)OC(C)C)NC[C@@H](N)CS	–	active: 22.4 µM
COC(=O)N1[C@H](Cc2ccccc2)C=C[C@]1(C)C(=O)NCc1ccccn1	–	inconclusive: 89.1 µM [inhibitor, single point]
COc1ccc2c(CC(=O)OCC(=O)Nc3ccccc3[N+](=O)[O-])coc2c1	–	active: 11.2 µM
COc1ccc(OCCCC(=O)N2CCN(S(=O)(=O)c3cccc(F)c3)CC2)cc1	inactive: -7.73% [at 102 µM]	–
CC(=O)c1ccc(NC(=S)N(Cc2ccccc2)C(C)C2CC2)cc1 (stereo unspecified)	–	inconclusive: 89.1 µM [inhibitor, partial curve, poor fit]
C=CCn1c(=O)/c(=C/c2ccc(C)o2)s/c1=C(/C#N)C(=O)c1ccccc1	–	inconclusive: 8.91 µM [inhibitor, partial curve, poor fit]
O=C1/C(=C\c2ccncc2)SC(=S)N1C1CCCCC1	–	inconclusive: 89.1 µM [inhibitor, single point]
Cc1ccc(-c2nn3c(C)nnc3s2)cc1NC(=O)c1ccc(Br)o1	–	inconclusive: 89.1 µM [inhibitor, single point]
Cn1ncc([N+](=O)[O-])c1C(=O)Nc1ccc(-c2nc3ccccc3[nH]2)cc1	–	inconclusive: 35.5 µM [inhibitor, partial curve, poor fit]
Cn1c(NC(=O)c2ccccc2)cc(=O)n(C)c1=O	inactive: -37.2% [at 102 µM]	–
O=C(NCc1ccccc1)c1nncc(-c2ccccc2)n1	inactive: 7.11% [at 0.501 µM]	–
CCCCN1C(=O)/C(=C2/C=CC=CN2C)SC1=S	inconclusive: -139% [inhibitor]	–
Cc1ccc(C)c(CN2C(=O)c3ccccc3S(=O)c3ccc(C(=O)N4CCN(c5cccc(Cl)c5)CC4)cc32)c1 (stereo unspecified)	inactive: -4.73%	–
CC1CCN(C(=O)COC(=O)C2CCN(S(=O)(=O)c3ccc(Cl)c(C(F)(F)F)c3)CC2)CC1	–	inconclusive: 39.8 µM [inhibitor, single point]
Cc1cc(C(=O)Nc2cccc(/C=C/C(=O)O)c2)c(C)o1	inconclusive: -70% [inhibitor]	–
Cc1ccc(-c2cc(=O)c3ccccc3[nH]2)cc1	–	inconclusive: 79.4 µM [inhibitor, partial curve] and inconclusive: 39.8 µM [inhibitor, partial curve]

Compound	activity, negative = inhibition	Potency
COc1ccc(N(CC(=O)Nc2cc(Cl)ccc2C)S(=O)(=O)c2c(C)n[nH]c2C)cc1	inactive: 2.97% [at 102 µM]	–
Cc1n[nH]c(C)c1CCN(C)C(=O)C1CCC(=O)N(CC2CCCCC2)C1 (stereo unspecified)	–	inconclusive: 8.91 µM [inhibitor, partial curve, poor fit]
Cc1ccc(Cl)cc1NC(=O)c1oc2ccc(S(=O)(=O)N3CCCCC3)cc2c1C	inactive: 1.67%	–
CCOc1ccccc1N1CCN(c2nc(N)c(C#N)c(CC#N)c2C#N)CC1	inconclusive: -83.9% [inhibitor]	–
NC(=O)c1c(NC(=O)CSc2nnc(-c3ccco3)n2-c2ccccc2)sc2c1CCC2	–	inconclusive: 39.8 µM [inhibitor, partial curve, poor fit]
CC1CCCC(NC(=O)CSc2nnc(C(F)(F)F)n2C)C1C (stereo unspecified)	–	inconclusive: 7.94 µM [inhibitor, partial curve, poor fit]
CCc1ccc(-n2c(=O)c3c4c(sc3n(CC(=O)N3CCC(C)CC3)c2=O)CCC4)cc1	inactive: 3.88%	–
Cc1ccc2c(c1)c1c(n2CC(O)CNC(C)(C)C)CCCC1 (stereo unspecified)	–	active: 50.1 µM
COc1ccc(S(=O)(=O)N2CCOCC2)cc1NC(=O)CCc1nc2ccccc2c(=O)[nH]1	–	inconclusive: 39.8 µM [inhibitor, partial curve, poor fit]
COc1ccc(Cn2c(=S)[nH]c3ccccc32)cc1	–	active: 1.78 µM
Nc1nc(CN2CCN(c3ccccn3)CC2)nc(Nc2ccc(F)cc2)n1	–	inconclusive: 3.16 µM [inhibitor, single point]
O=C(CSc1nnc(-c2ccncc2)n1Cc1ccco1)c1ccc(Cl)cc1	–	inconclusive: 39.8 µM [inhibitor, single point]
N/C(CN1CCCCC1)=N\S(=O)(=O)c1cc(Cl)cc(Cl)c1	–	inconclusive: 79.4 µM [inhibitor, partial curve, poor fit]
CC(=O)c1ccc(OC(=O)C2CC(=O)N(c3cccc(C)c3)C2)cc1 (stereo unspecified)	inconclusive: -95.3% [inhibitor]	–
O=C(NNc1ccc(F)cc1)c1c(F)cccc1Cl	–	inconclusive: 50.1 µM [inhibitor, partial curve]
Cc1nn(C(C)C(=O)N2CCN(c3ccc(Cl)cc3)CC2)c(=O)c2cc3occc3n12 (stereo unspecified)	–	inconclusive: 25.1 µM [inhibitor, partial curve, poor fit]
CCN(CC)CCNC(=O)c1cn(CC)c2cc(N3CCN(C(=O)c4ccco4)CC3)c(F)cc2c1=O	–	inconclusive: 56.2 µM [inhibitor, partial curve, poor fit]
COc1cc(/C=C2/C(=O)CNC2=O)ccc1O	–	active: 44.7 µM
CC(=O)CSc1nnc2cc(C)c3cc(C)cc(C)c3n12	–	inconclusive: 14.1 µM [inhibitor, partial curve, poor fit]
Cn1cnnc1SCC(=O)c1ccc(O)c(O)c1	–	active: 7.08 µM
Brc1ccc(OCCOCCN2CCOCC2)cc1	inactive: -39.7% [at 12.7 µM]	–
CC1CCN(S(=O)(=O)c2cc3c4c(c2)CCN4C(=O)CC3)CC1	–	inconclusive: 56.2 µM [inhibitor, partial curve, poor fit]
Cc1cccc(NC(=S)N2CCC(NC(=O)c3ccco3)CC2)c1	–	inconclusive: 89.1 µM [inhibitor, single point]
